Data on 11 molecules can be found in article PMC6050124 (Biochemistry, 2018).

This experiment concerns the target EntF (Escherichia coli, UniProt P11454 1-1293). The experiment in a line: ATP-PPi exchange assay.

B1: YbdZ (wild type), individually purified (natural protein, Escherichia coli, UniProt P18393 1-72, looked up)
chain: MAFSNPFDDPQGAFYILRNAQGQFSLWPQQCVLPAGWDIVCQPQSQASCQQWLEAHWRTLTPTNFTQLQEAQ
Molecule B1 displayed a Kd of 186 ± 69 nM.

B2: YbdZ W37A (natural protein, Escherichia coli, UniProt P18393 1-72, looked up)
chain: MAFSNPFDDPQGAFYILRNAQGQFSLWPQQCVLPAGADIVCQPQSQASCQQWLEAHWRTLTPTNFTQLQEAQ
As to B2, the dissociation constant Kd turned out to be 1180 ± 338 nM.

B3: YbdZ I16A, individually purified (natural protein, Escherichia coli, UniProt P18393 1-72, looked up)
chain: MAFSNPFDDPQGAFYALRNAQGQFSLWPQQCVLPAGWDIVCQPQSQASCQQWLEAHWRTLTPTNFTQLQEAQ
B3 displayed a Kd of 109 ± 27 nM.

B4: YbdZ D8A (natural protein, Escherichia coli, UniProt P18393 1-72, looked up)
chain: MAFSNPFADPQGAFYILRNAQGQFSLWPQQCVLPAGWDIVCQPQSQASCQQWLEAHWRTLTPTNFTQLQEAQ
Molecule B4 showed a Kd of 555 ± 150 nM.

B5: YbdZ L17A (natural protein, Escherichia coli, UniProt P18393 1-72, looked up)
chain: MAFSNPFDDPQGAFYIARNAQGQFSLWPQQCVLPAGWDIVCQPQSQASCQQWLEAHWRTLTPTNFTQLQEAQ
B5 returned a Kd of 295 ± 88 nM.

B6: YbdZ Q69A (natural protein, Escherichia coli, UniProt P18393 1-72, looked up)
chain: MAFSNPFDDPQGAFYILRNAQGQFSLWPQQCVLPAGWDIVCQPQSQASCQQWLEAHWRTLTPTNFTQLAEAQ
As to B6, the Kd was determined as 374 ± 130 nM.

B7: YbdZ S48A (natural protein, Escherichia coli, UniProt P18393 1-72, looked up)
chain: MAFSNPFDDPQGAFYILRNAQGQFSLWPQQCVLPAGWDIVCQPQSQAACQQWLEAHWRTLTPTNFTQLQEAQ
Molecule B7 came in with a Kd of 41 ± 10 nM.

B8: YbdZ P62A (natural protein, Escherichia coli, UniProt P18393 1-72, looked up)
chain: MAFSNPFDDPQGAFYILRNAQGQFSLWPQQCVLPAGWDIVCQPQSQASCQQWLEAHWRTLTATNFTQLQEAQ
Take B8: the Kd stood at 229 ± 85 nM.

B9: YbdZ W27A (natural protein, Escherichia coli, UniProt P18393 1-72, looked up)
chain: MAFSNPFDDPQGAFYILRNAQGQFSLAPQQCVLPAGWDIVCQPQSQASCQQWLEAHWRTLTPTNFTQLQEAQ
As for B9, binding was put at a Kd of 636 ± 78 nM.

B10: YbdZ A55S (natural protein, Escherichia coli, UniProt P18393 1-72, looked up)
chain: MAFSNPFDDPQGAFYILRNAQGQFSLWPQQCVLPAGWDIVCQPQSQASCQQWLESHWRTLTPTNFTQLQEAQ
B10 had a Kd of 270 ± 88 nM.

B11: YbdZ L53A (natural protein, Escherichia coli, UniProt P18393 1-72, looked up)
chain: MAFSNPFDDPQGAFYILRNAQGQFSLWPQQCVLPAGWDIVCQPQSQASCQQWAEAHWRTLTPTNFTQLQEAQ
With B11, the Kd was 213 ± 100 nM.
